# Measured values reported in PMC12820563, “FoxP3 forms a head-to-head dimer in vivo and stabilizes its multimerization on adjacent microsatellites”.
# The list shows a part of the results.
# Target: T1, MBP-FoxP1dN (Mus musculus, UniProt P58462 326-579)
# T1 sequence: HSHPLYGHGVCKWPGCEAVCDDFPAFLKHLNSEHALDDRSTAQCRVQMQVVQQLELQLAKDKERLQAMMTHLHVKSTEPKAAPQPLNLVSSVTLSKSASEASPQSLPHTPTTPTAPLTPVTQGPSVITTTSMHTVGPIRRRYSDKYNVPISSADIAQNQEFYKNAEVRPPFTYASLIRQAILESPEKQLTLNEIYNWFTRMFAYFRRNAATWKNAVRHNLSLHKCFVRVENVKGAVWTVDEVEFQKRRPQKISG
# Test: PD-seq (MBP pull-down with sequencing); 20 mM Tris-HCl pH 7.5, 100 mM NaCl, 1.5 mM MgCl2, 0.4 uM protein, 0.1 uM dsDNA library, 30 min, room temperature, amylose pull-down; high values mean tight binding
# Details: protein: recombinant; tags: His6-MBP; chain copies: 2; dsDNA, one strand shown
# Summary of the method: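 A fragment of mouse FoxP3 or FoxP1 without its N-terminus, carrying a His6-MBP tag and produced in E. coli, was combined at 0.4 µM with a 0.1 µM degenerate double-stranded DNA library filled in with Klenow. The mixture sat for 30 min at room temperature in Tris pH 7.5 buffer containing NaCl and MgCl2. Protein–DNA complexes were captured on amylose resin, washed three times, and the DNA was freed with proteinase K, barcoded by PCR and sequenced on Illumina. Binding is expressed as reads-per-million enrichment of pull-down over input, with replicates pooled.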
row,Sequence,binding signal
1,GATGATTGTTCTCCCAGCTGATGAATTATCTGGGTCGAGTAAACAAATTTTCCTAATCTTTCTGTTCAAGCGCCATCTAC,0.882 RPM ratio (pull-down/input)
2,GATGATTGTTCTCCCAGCTGATGAATTTCGGGATTCGAGTAAACAAATTTTCCTAATCTTTCTGTTCAAGCGCCATCTAC,0.86 RPM ratio (pull-down/input)
3,GATGATTGTTCTCCCAGCTGATGAATTTCAAGCTTCGAGTAAACAAATTTTCCTAATCTTTCTGTTCAAGCGCCATCTAC,0.801 RPM ratio (pull-down/input)
4,GATGATTGTTCTCCCAGCTGATGAATTTACTCATTCGAGTAAACAAATTTTCCTAATCTTTCTGTTCAAGCGCCATCTAC,1.35 RPM ratio (pull-down/input)
5,GATGATTGTTCTCCCAGCTGATGAATTTGCATTCTCGAGTAAACAAATTTTCCTAATCTTTCTGTTCAAGCGCCATCTAC,1.49 RPM ratio (pull-down/input)
6,GATGATTGTTCTCCCAGCTGATGAATTAGATATGTCGAGTAAACAAATTTTCCTAATCTTTCTGTTCAAGCGCCATCTAC,1.07 RPM ratio (pull-down/input)
7,GATGATTGTTCTCCCAGCTGATGAATTGTTCGCCTCGAGTAAACAAATTTTCCTAATCTTTCTGTTCAAGCGCCATCTAC,1.09 RPM ratio (pull-down/input)
8,GATGATTGTTCTCCCAGCTGATGAATTGCCGAGTTCGAGTAAACAAATTTTCCTAATCTTTCTGTTCAAGCGCCATCTAC,0.883 RPM ratio (pull-down/input)
9,GATGATTGTTCTCCCAGCTGATGAATTAACCGTCTCGAGTAAACAAATTTTCCTAATCTTTCTGTTCAAGCGCCATCTAC,0.804 RPM ratio (pull-down/input)
10,GATGATTGTTCTCCCAGCTGATGAATTGGTTGGATCGAGTAAACAAATTTTCCTAATCTTTCTGTTCAAGCGCCATCTAC,0.937 RPM ratio (pull-down/input)
11,GATGATTGTTCTCCCAGCTGATGAATTTTATGTTTCGAGTAAACAAATTTTCCTAATCTTTCTGTTCAAGCGCCATCTAC,1.19 RPM ratio (pull-down/input)
12,GATGATTGTTCTCCCAGCTGATGAATTCCGTACATCGAGTAAACAAATTTTCCTAATCTTTCTGTTCAAGCGCCATCTAC,0.996 RPM ratio (pull-down/input)
13,GATGATTGTTCTCCCAGCTGATGAATTAGTGTCCTCGAGTAAACAAATTTTCCTAATCTTTCTGTTCAAGCGCCATCTAC,0.934 RPM ratio (pull-down/input)
14,GATGATTGTTCTCCCAGCTGATGAATTAGTGAGCTCGAGTAAACAAATTTTCCTAATCTTTCTGTTCAAGCGCCATCTAC,0.775 RPM ratio (pull-down/input)
15,GATGATTGTTCTCCCAGCTGATGAATTTGAGGCCTCGAGTAAACAAATTTTCCTAATCTTTCTGTTCAAGCGCCATCTAC,0.853 RPM ratio (pull-down/input)
16,GATGATTGTTCTCCCAGCTGATGAATTACACGACTCGAGTAAACAAATTTTCCTAATCTTTCTGTTCAAGCGCCATCTAC,1.06 RPM ratio (pull-down/input)
17,GATGATTGTTCTCCCAGCTGATGAATTGAGGTGCTCGAGTAAACAAATTTTCCTAATCTTTCTGTTCAAGCGCCATCTAC,0.768 RPM ratio (pull-down/input)
18,GATGATTGTTCTCCCAGCTGATGAATTTTTCAAGTCGAGTAAACAAATTTTCCTAATCTTTCTGTTCAAGCGCCATCTAC,0.818 RPM ratio (pull-down/input)
19,GATGATTGTTCTCCCAGCTGATGAATTATTTATTTCGAGTAAACAAATTTTCCTAATCTTTCTGTTCAAGCGCCATCTAC,2.06 RPM ratio (pull-down/input)
20,GATGATTGTTCTCCCAGCTGATGAATTACTCCCCTCGAGTAAACAAATTTTCCTAATCTTTCTGTTCAAGCGCCATCTAC,0.934 RPM ratio (pull-down/input)
21,GATGATTGTTCTCCCAGCTGATGAATTGCCGAAGTCGAGTAAACAAATTTTCCTAATCTTTCTGTTCAAGCGCCATCTAC,0.908 RPM ratio (pull-down/input)

row,Sequence,binding signal
1,GATGATTGTTCTCCCAGCTGATGAATTACGCCGCTCGAGTAAACAAATTTTCCTAATCTTTCTGTTCAAGCGCCATCTAC,0.937 RPM ratio (pull-down/input)
2,GATGATTGTTCTCCCAGCTGATGAATTCCAAATGTCGAGTAAACAAATTTTCCTAATCTTTCTGTTCAAGCGCCATCTAC,0.855 RPM ratio (pull-down/input)
3,GATGATTGTTCTCCCAGCTGATGAATTCGATTGATCGAGTAAACAAATTTTCCTAATCTTTCTGTTCAAGCGCCATCTAC,0.971 RPM ratio (pull-down/input)
4,GATGATTGTTCTCCCAGCTGATGAATTGAAGAGTTCGAGTAAACAAATTTTCCTAATCTTTCTGTTCAAGCGCCATCTAC,0.73 RPM ratio (pull-down/input)
5,GATGATTGTTCTCCCAGCTGATGAATTTAACTTGTCGAGTAAACAAATTTTCCTAATCTTTCTGTTCAAGCGCCATCTAC,0.918 RPM ratio (pull-down/input)
6,GATGATTGTTCTCCCAGCTGATGAATTTCCTATTTCGAGTAAACAAATTTTCCTAATCTTTCTGTTCAAGCGCCATCTAC,0.887 RPM ratio (pull-down/input)
7,GATGATTGTTCTCCCAGCTGATGAATTCCTCCCATCGAGTAAACAAATTTTCCTAATCTTTCTGTTCAAGCGCCATCTAC,0.868 RPM ratio (pull-down/input)
8,GATGATTGTTCTCCCAGCTGATGAATTAGCGATGTCGAGTAAACAAATTTTCCTAATCTTTCTGTTCAAGCGCCATCTAC,0.951 RPM ratio (pull-down/input)
9,GATGATTGTTCTCCCAGCTGATGAATTACATAGATCGAGTAAACAAATTTTCCTAATCTTTCTGTTCAAGCGCCATCTAC,1.19 RPM ratio (pull-down/input)
10,GATGATTGTTCTCCCAGCTGATGAATTAACTACATCGAGTAAACAAATTTTCCTAATCTTTCTGTTCAAGCGCCATCTAC,1.13 RPM ratio (pull-down/input)
11,GATGATTGTTCTCCCAGCTGATGAATTTGGACCCTCGAGTAAACAAATTTTCCTAATCTTTCTGTTCAAGCGCCATCTAC,0.822 RPM ratio (pull-down/input)
12,GATGATTGTTCTCCCAGCTGATGAATTAAGCACCTCGAGTAAACAAATTTTCCTAATCTTTCTGTTCAAGCGCCATCTAC,0.918 RPM ratio (pull-down/input)
13,GATGATTGTTCTCCCAGCTGATGAATTGTCTTGTTCGAGTAAACAAATTTTCCTAATCTTTCTGTTCAAGCGCCATCTAC,1.1 RPM ratio (pull-down/input)
14,GATGATTGTTCTCCCAGCTGATGAATTCTGACAATCGAGTAAACAAATTTTCCTAATCTTTCTGTTCAAGCGCCATCTAC,1.01 RPM ratio (pull-down/input)
15,GATGATTGTTCTCCCAGCTGATGAATTAATGATTTCGAGTAAACAAATTTTCCTAATCTTTCTGTTCAAGCGCCATCTAC,1.15 RPM ratio (pull-down/input)
16,GATGATTGTTCTCCCAGCTGATGAATTGACGCACTCGAGTAAACAAATTTTCCTAATCTTTCTGTTCAAGCGCCATCTAC,1.17 RPM ratio (pull-down/input)
17,GATGATTGTTCTCCCAGCTGATGAATTGCGAATGTCGAGTAAACAAATTTTCCTAATCTTTCTGTTCAAGCGCCATCTAC,1.12 RPM ratio (pull-down/input)
18,GATGATTGTTCTCCCAGCTGATGAATTGATCGATTCGAGTAAACAAATTTTCCTAATCTTTCTGTTCAAGCGCCATCTAC,1.03 RPM ratio (pull-down/input)
19,GATGATTGTTCTCCCAGCTGATGAATTGTTATGTTCGAGTAAACAAATTTTCCTAATCTTTCTGTTCAAGCGCCATCTAC,2.01 RPM ratio (pull-down/input)
20,GATGATTGTTCTCCCAGCTGATGAATTGTTCACGTCGAGTAAACAAATTTTCCTAATCTTTCTGTTCAAGCGCCATCTAC,1.04 RPM ratio (pull-down/input)
21,GATGATTGTTCTCCCAGCTGATGAATTTGTAAGGTCGAGTAAACAAATTTTCCTAATCTTTCTGTTCAAGCGCCATCTAC,0.984 RPM ratio (pull-down/input)

row,Sequence,binding signal
1,GATGATTGTTCTCCCAGCTGATGAATTCAGCGTCTCGAGTAAACAAATTTTCCTAATCTTTCTGTTCAAGCGCCATCTAC,0.903 RPM ratio (pull-down/input)
2,GATGATTGTTCTCCCAGCTGATGAATTGGGCTTGTCGAGTAAACAAATTTTCCTAATCTTTCTGTTCAAGCGCCATCTAC,0.904 RPM ratio (pull-down/input)
3,GATGATTGTTCTCCCAGCTGATGAATTGCGTGGCTCGAGTAAACAAATTTTCCTAATCTTTCTGTTCAAGCGCCATCTAC,0.979 RPM ratio (pull-down/input)
4,GATGATTGTTCTCCCAGCTGATGAATTAGGGCAGTCGAGTAAACAAATTTTCCTAATCTTTCTGTTCAAGCGCCATCTAC,0.877 RPM ratio (pull-down/input)
5,GATGATTGTTCTCCCAGCTGATGAATTAGACCCTTCGAGTAAACAAATTTTCCTAATCTTTCTGTTCAAGCGCCATCTAC,0.955 RPM ratio (pull-down/input)
6,GATGATTGTTCTCCCAGCTGATGAATTCGCCTCCTCGAGTAAACAAATTTTCCTAATCTTTCTGTTCAAGCGCCATCTAC,0.799 RPM ratio (pull-down/input)
7,GATGATTGTTCTCCCAGCTGATGAATTAAAACATTCGAGTAAACAAATTTTCCTAATCTTTCTGTTCAAGCGCCATCTAC,1.4 RPM ratio (pull-down/input)
8,GATGATTGTTCTCCCAGCTGATGAATTGCGATCTTCGAGTAAACAAATTTTCCTAATCTTTCTGTTCAAGCGCCATCTAC,1.07 RPM ratio (pull-down/input)
9,GATGATTGTTCTCCCAGCTGATGAATTCTGAATTTCGAGTAAACAAATTTTCCTAATCTTTCTGTTCAAGCGCCATCTAC,0.85 RPM ratio (pull-down/input)
10,GATGATTGTTCTCCCAGCTGATGAATTCTAATTTTCGAGTAAACAAATTTTCCTAATCTTTCTGTTCAAGCGCCATCTAC,0.997 RPM ratio (pull-down/input)
11,GATGATTGTTCTCCCAGCTGATGAATTACAGCCATCGAGTAAACAAATTTTCCTAATCTTTCTGTTCAAGCGCCATCTAC,1.09 RPM ratio (pull-down/input)
12,GATGATTGTTCTCCCAGCTGATGAATTCAATATCTCGAGTAAACAAATTTTCCTAATCTTTCTGTTCAAGCGCCATCTAC,0.854 RPM ratio (pull-down/input)
13,GATGATTGTTCTCCCAGCTGATGAATTCCATAGATCGAGTAAACAAATTTTCCTAATCTTTCTGTTCAAGCGCCATCTAC,0.787 RPM ratio (pull-down/input)
14,GATGATTGTTCTCCCAGCTGATGAATTAGAAGCATCGAGTAAACAAATTTTCCTAATCTTTCTGTTCAAGCGCCATCTAC,1.12 RPM ratio (pull-down/input)
15,GATGATTGTTCTCCCAGCTGATGAATTAATAGGATCGAGTAAACAAATTTTCCTAATCTTTCTGTTCAAGCGCCATCTAC,0.865 RPM ratio (pull-down/input)
16,GATGATTGTTCTCCCAGCTGATGAATTAGAAACGTCGAGTAAACAAATTTTCCTAATCTTTCTGTTCAAGCGCCATCTAC,0.894 RPM ratio (pull-down/input)
17,GATGATTGTTCTCCCAGCTGATGAATTCCGGTGATCGAGTAAACAAATTTTCCTAATCTTTCTGTTCAAGCGCCATCTAC,0.897 RPM ratio (pull-down/input)
18,GATGATTGTTCTCCCAGCTGATGAATTGTGAGTGTCGAGTAAACAAATTTTCCTAATCTTTCTGTTCAAGCGCCATCTAC,1.13 RPM ratio (pull-down/input)
19,GATGATTGTTCTCCCAGCTGATGAATTCCGCTCATCGAGTAAACAAATTTTCCTAATCTTTCTGTTCAAGCGCCATCTAC,0.776 RPM ratio (pull-down/input)
20,GATGATTGTTCTCCCAGCTGATGAATTTGGCACTTCGAGTAAACAAATTTTCCTAATCTTTCTGTTCAAGCGCCATCTAC,0.874 RPM ratio (pull-down/input)
21,GATGATTGTTCTCCCAGCTGATGAATTGAGTCAATCGAGTAAACAAATTTTCCTAATCTTTCTGTTCAAGCGCCATCTAC,1.01 RPM ratio (pull-down/input)
